In the supplement of paper PMC8728848:
This is one part of the list.

Key:
Assay in all cases: glycan array binding signal (z-score within array); higher = stronger binding
Settings in all cases: glycan notation: IUPAC condensed, linker removed
[1] = biological target: Neu5Ac(a2-3)Gal(b1-3)[Fuc(a1-4)]GlcNAc
Method in brief: (§1)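 The Consortium for Functional Glycomics database supplied 3228 glycan arrays, of which those lacking an available protein sequence were dropped. The binding signal, a within-array Z-score, was averaged across arrays of the same protein sequence and across linkers. Negative scores can be read as non-binding.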

[2] = biological target: Neu5Ac(a2-3)Gal(b1-3)[Fuc(a1-4)]GlcNAc(b1-3)Gal(b1-3)[Fuc(a1-4)]GlcNAc
Method in brief: as §1

[3] = biological target: Neu5Ac(a2-3)Gal(b1-3)[Fuc(a1-4)]GlcNAc(b1-3)Gal(b1-4)[Fuc(a1-3)]GlcNAc
Method in brief: as §1

[4] = biological target: Neu5Ac(a2-3)Gal(b1-3)[GlcNAc(b1-6)]GalNAc
Method in brief: as §1

[5] = biological target: Neu5Ac(a2-3)Gal(b1-3)[Neu5Ac(a2-6)]GalNAc
Method in brief: as §1

[6] = biological target: Neu5Ac(a2-3)Gal(b1-3)[Neu5Ac(a2-6)]GlcNAc(b1-3)[Fuc(a1-3)[Gal(b1-4)]GlcNAc(b1-6)]Gal(b1-4)Glc
Method in brief: as §1

[7] = biological target: Neu5Ac(a2-3)Gal(b1-3)]Neu5Ac(a2-3)Gal(b1-4)]GlcNAc
Method in brief: as §1

[8] = biological target: Neu5Ac(a2-3)Gal(b1-4)Glc
Method in brief: as §1

[9] = biological target: Neu5Ac(a2-3)Gal(b1-4)GlcNAc
Method in brief: as §1

[10] = biological target: Neu5Ac(a2-3)Gal(b1-4)GlcNAc(b1-2)Man
Method in brief: as §1

[11] = biological target: Neu5Ac(a2-3)Gal(b1-4)GlcNAc(b1-2)Man(a1-3)[GlcNAc(b1-4)][Neu5Ac(a2-3)Gal(b1-4)GlcNAc(b1-2)Man(a1-6)]Man(b1-4)GlcNAc(b1-4)GlcNAc
Method in brief: as §1

[12] = biological target: Neu5Ac(a2-3)Gal(b1-4)GlcNAc(b1-2)Man(a1-3)[Neu5Ac(a2-3)Gal(b1-4)GlcNAc(b1-2)Man(a1-6)]Man(b1-4)GlcNAc(b1-4)GlcNAc
Method in brief: as §1

[13] = biological target: Neu5Ac(a2-3)Gal(b1-4)GlcNAc(b1-2)Man(a1-3)[Neu5Ac(a2-3)Gal(b1-4)GlcNAc(b1-2)Man(a1-6)]Man(b1-4)GlcNAc(b1-4)[Fuc(a1-6)]GlcNAc
Method in brief: as §1

[14] = biological target: Neu5Ac(a2-3)Gal(b1-4)GlcNAc(b1-2)Man(a1-3)[Neu5Ac(a2-6)Gal(b1-4)GlcNAc(b1-2)Man(a1-6)]Man(b1-4)GlcNAc(b1-4)GlcNAc
Method in brief: as §1

[15] = biological target: Neu5Ac(a2-3)Gal(b1-4)GlcNAc(b1-2)[Neu5Ac(a2-3)Gal(b1-4)GlcNAc(b1-4)]Man(a1-3)[GlcNAc(b1-4)][Neu5Ac(a2-3)Gal(b1-4)GlcNAc(b1-2)[Neu5Ac(a2-3)Gal(b1-4)GlcNAc(b1-6)]Man(a1-6)]Man(b1-4)GlcNAc(b1-4)GlcNAc
Method in brief: as §1

[16] = biological target: Neu5Ac(a2-3)Gal(b1-4)GlcNAc(b1-2)[Neu5Ac(a2-3)Gal(b1-4)GlcNAc(b1-4)]Man(a1-3)[GlcNAc(b1-4)][Neu5Ac(a2-3)Gal(b1-4)GlcNAc(b1-4)Man(a1-6)]Man(b1-4)GlcNAc(b1-4)GlcNAc
Method in brief: as §1

[17] = biological target: Neu5Ac(a2-3)Gal(b1-4)GlcNAc(b1-2)[Neu5Ac(a2-3)Gal(b1-4)GlcNAc(b1-6)]Man(a1-6)[Neu5Ac(a2-3)Gal(b1-4)GlcNAc(b1-2)Man(a1-3)]Man(b1-4)GlcNAc(b1-4)GlcNAc
Method in brief: as §1

[18] = biological target: Neu5Ac(a2-3)Gal(b1-4)GlcNAc(b1-2)[Neu5Ac(a2-3)Gal(b1-4)GlcNAc(b1-6)]Man(a1-6)[Neu5Ac(a2-3)Gal(b1-4)GlcNAc(b1-2)Man(a1-3)][GlcNAc(b1-4)]Man(b1-4)GlcNAc(b1-4)GlcNAc
Method in brief: as §1

[19] = biological target: Neu5Ac(a2-3)Gal(b1-4)GlcNAc(b1-3)Gal
Method in brief: as §1

[20] = biological target: Neu5Ac(a2-3)Gal(b1-4)GlcNAc(b1-3)Gal(b1-3)GlcNAc
Method in brief: as §1

[21] = biological target: Neu5Ac(a2-3)Gal(b1-4)GlcNAc(b1-3)Gal(b1-4)GlcNAc
Method in brief: as §1

[22] = biological target: Neu5Ac(a2-3)Gal(b1-4)GlcNAc(b1-3)Gal(b1-4)GlcNAc(b1-2)Man(a1-3)[Neu5Ac(a2-3)Gal(b1-4)GlcNAc(b1-3)Gal(b1-4)GlcNAc(b1-2)Man(a1-6)]Man(b1-4)GlcNAc(b1-4)GlcNAc
Method in brief: as §1

[23] = biological target: Neu5Ac(a2-3)Gal(b1-4)GlcNAc(b1-3)Gal(b1-4)GlcNAc(b1-3)Gal(b1-4)GlcNAc
Method in brief: as §1

[24] = biological target: Neu5Ac(a2-3)Gal(b1-4)GlcNAc(b1-3)Gal(b1-4)GlcNAc(b1-3)Gal(b1-4)GlcNAc(b1-2)Man(a1-3)[Neu5Ac(a2-3)Gal(b1-4)GlcNAc(b1-3)Gal(b1-4)GlcNAc(b1-3)Gal(b1-4)GlcNAc(b1-2)Man(a1-6)]GalNAc
Method in brief: as §1

[25] = biological target: Neu5Ac(a2-3)Gal(b1-4)GlcNAc(b1-3)Gal(b1-4)GlcNAc(b1-3)GalNAc
Method in brief: as §1

[26] = biological target: Neu5Ac(a2-3)Gal(b1-4)GlcNAc(b1-3)Gal(b1-4)GlcNAc(b1-3)[Neu5Ac(a2-3)Gal(b1-4)GlcNAc(b1-3)Gal(b1-4)GlcNAc(b1-6)]GalNAc
Method in brief: as §1

[27] = biological target: Neu5Ac(a2-3)Gal(b1-4)GlcNAc(b1-3)Gal(b1-4)GlcNAc(b1-6)[Gal(b1-3)]GalNAc
Method in brief: as §1

[28] = biological target: Neu5Ac(a2-3)Gal(b1-4)GlcNAc(b1-3)Gal(b1-4)[Fuc(a1-3)]GlcNAc
Method in brief: as §1

[29] = biological target: Neu5Ac(a2-3)Gal(b1-4)GlcNAc(b1-3)GalNAc
Method in brief: as §1

[30] = biological target: Neu5Ac(a2-3)Gal(b1-4)GlcNAc(b1-3)[Neu5Ac(a2-3)Gal(b1-4)GlcNAc(b1-6)]GalNAc
Method in brief: as §1

B1: Si Bti9 1b-V5-his (Solanum lycopersicum) (protein)
chain: MQCNRGCDLALASFYVWRGSNLTLISEMFSTSIADIVSYNNRDNIPNQDSVIAGTRINIPFRCDCLNDGEVLGHAFPYRVKSGDTYDLVARNYSDLTTAQWMMKFNSYPENNIPNTVNLSVVVNCSCGNSDVSKDFGLFVTYPVRAEDNLTSVASAANVSEDIIRRYNPAAVSILDIGQGIIYIPGRDRNGNFPPLPTSTDGLSGGAKKGGRADPAFLYKVVINSKLEGKPIPNPLLGLDSTRTGHHHHHH
glycan array binding signal (z-score) [1]: -0.303 | glycan array binding signal (z-score) [2]: -0.079 | glycan array binding signal (z-score) [3]: -0.294 | glycan array binding signal (z-score) [4]: -0.228 | glycan array binding signal (z-score) [5]: -0.238 | glycan array binding signal (z-score) [6]: -0.344 | glycan array binding signal (z-score) [7]: -0.311 | glycan array binding signal (z-score) [8]: -0.218 | glycan array binding signal (z-score) [9]: -0.338 | glycan array binding signal (z-score) [10]: 0.768 | glycan array binding signal (z-score) [11]: -0.35 | glycan array binding signal (z-score) [12]: -0.423 | glycan array binding signal (z-score) [13]: -0.291 | glycan array binding signal (z-score) [14]: -0.367 | glycan array binding signal (z-score) [15]: -0.157 | glycan array binding signal (z-score) [16]: -0.113 | glycan array binding signal (z-score) [17]: -0.106 | glycan array binding signal (z-score) [18]: -0.312 | glycan array binding signal (z-score) [19]: 0.048 | glycan array binding signal (z-score) [20]: -0.372 | glycan array binding signal (z-score) [21]: -0.389 | glycan array binding signal (z-score) [22]: -0.283 | glycan array binding signal (z-score) [23]: -0.171 | glycan array binding signal (z-score) [24]: 0.446 | glycan array binding signal (z-score) [25]: -0.372 | glycan array binding signal (z-score) [26]: -0.241 | glycan array binding signal (z-score) [27]: -0.158 | glycan array binding signal (z-score) [28]: -0.379 | glycan array binding signal (z-score) [29]: 0.013 | glycan array binding signal (z-score) [30]: -0.16
